One test deals with SBT1 (SEQ ID No. 2). The test can be described thus: Kinetic analysis of protease-inhibitor interactions, SBT1. The class given is biochemical, Nicotiana benthamiana. The following applies: recombinant inhibitor from E. coli; substrate Abz-VILDAVRA-Y(NO2). The protocol: (§1) These assays were performed as described (Hohl M et al., 2017, J. Biol. Chem. 292, 6389-6401). A fluorogenic peptide substrate, Abz-[…]-Y(NO2) (SEQ ID NO: 37), was used for measuring the enzymatic activity of the subtilisin-like serine proteases tested. Recombinant inhibitors (prepared as described in Hohl M et al., 2017, J. Biol. Chem. 292, 6389-6401) were added in serial dilutions. Substrate cleavage was monitored in an Infinite M200 Pro microplate reader as increase in relative fluorescence (λex=320 nm; λem=420 nm). Inhibition constants (Ki) were calculated using the Morrison equation.

A further test addresses SBT2 (SEQ ID No. 14). The experiment in a line: Kinetic analysis of protease-inhibitor interactions, SBT2. Type of test: biochemical, Nicotiana benthamiana. Particulars: recombinant inhibitor from E. coli; substrate Abz-VILDAVRA-Y(NO2). Here is the method:
as §1

B1: S12: S. lycopersicum subtilisin propeptide-like inhibitor, SEQ ID No. 34, recombinant from E. coli (protein)
chain: MQKIQIIFLVFLLLFVADCEEAKVYIVFTENPQPKEFHIKTLASVLGSEDAAREALIYSYKHVISGFAARLTPEQVSELAKKPGVLEIVPSRTYHLDGPKLK
modifications: Protease inhibitor
Turning to B1, at SBT1 (SEQ ID No. 2), the “binding affinity to / inhibition of SBT1” value was “high affinities”. Also, the “binding affinity to / inhibition of SBT2” value on SBT2 (SEQ ID No. 14) is listed as “high affinities”.

The values are drawn from patent publication US12553059B2, “Plant serine proteases” (priority 2018, dated 2026).
